According to paper PMC4336329 (PLoS ONE, 2015):
About 2,200 (0.71%) of roughly 310,000 compounds showed an effect of 50% or more. The effect is printed as a negative number. The list shows a part of the results.

molecular target: human ether-à-go-go-related gene (hERG) potassium channel (human, UniProt Q12809); assay: primary screen, population patch clamp on CHO cells stably expressing hERG
Sequence (Q12809 whole entry, looked up): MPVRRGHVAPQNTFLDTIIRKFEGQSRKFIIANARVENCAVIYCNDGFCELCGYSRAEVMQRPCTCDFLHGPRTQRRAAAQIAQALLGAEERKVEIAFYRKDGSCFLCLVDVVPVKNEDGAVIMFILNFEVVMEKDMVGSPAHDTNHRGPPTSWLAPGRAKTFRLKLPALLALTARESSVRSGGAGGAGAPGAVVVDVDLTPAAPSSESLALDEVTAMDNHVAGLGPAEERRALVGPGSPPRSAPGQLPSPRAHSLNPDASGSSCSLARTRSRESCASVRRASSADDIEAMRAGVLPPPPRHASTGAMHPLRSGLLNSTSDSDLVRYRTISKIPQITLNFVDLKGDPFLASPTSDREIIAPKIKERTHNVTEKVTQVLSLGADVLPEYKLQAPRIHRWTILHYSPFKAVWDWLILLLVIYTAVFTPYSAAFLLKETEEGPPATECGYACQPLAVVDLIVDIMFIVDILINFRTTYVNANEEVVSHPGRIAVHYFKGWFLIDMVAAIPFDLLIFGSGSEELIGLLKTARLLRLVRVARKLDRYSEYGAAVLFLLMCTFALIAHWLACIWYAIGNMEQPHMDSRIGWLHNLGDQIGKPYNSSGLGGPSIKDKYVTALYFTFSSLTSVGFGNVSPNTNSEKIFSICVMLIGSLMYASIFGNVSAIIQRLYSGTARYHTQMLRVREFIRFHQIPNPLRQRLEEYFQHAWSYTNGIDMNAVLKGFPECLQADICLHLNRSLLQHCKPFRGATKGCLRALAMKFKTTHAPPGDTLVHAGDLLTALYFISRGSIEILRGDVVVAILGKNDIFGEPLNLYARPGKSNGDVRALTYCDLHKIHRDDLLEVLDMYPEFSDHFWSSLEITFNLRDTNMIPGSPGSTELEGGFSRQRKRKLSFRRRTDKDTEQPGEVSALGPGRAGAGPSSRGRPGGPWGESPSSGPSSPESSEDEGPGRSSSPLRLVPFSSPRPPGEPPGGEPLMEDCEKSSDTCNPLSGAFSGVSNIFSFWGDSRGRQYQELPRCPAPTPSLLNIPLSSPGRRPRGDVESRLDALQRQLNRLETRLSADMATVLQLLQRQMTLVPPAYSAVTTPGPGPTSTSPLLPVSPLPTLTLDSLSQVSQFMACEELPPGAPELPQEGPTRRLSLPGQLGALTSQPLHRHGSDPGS

Row | Structure (SMILES) | hERG current change (%, negative = inhibition) at 1uM
1 | COc1ccc2[nH]c(=O)c3c(c2c1)OC(C)(C)C=C3 | 11.1%
2 | CCC(C)[C@H]1COCCS(=O)(=O)N1Cc1ccccc1F (some centres unmarked) | -1.13%
3 | Cl.NC(=S)NC(c1ccccc1)c1ccncc1 (centres unmarked) | 6.39%
4 | COc1cccc(OC)c1-c1nn2c(-c3cc(-c4ccccc4)n[nH]3)nnc2s1 | 10.4%
5 | O=C(Cc1ccccc1)NNC1CC(=O)N(c2ccccc2)C1=O (centres unmarked) | 11.4%
6 | COc1ccccc1C1=NOC(C)(c2nnc(Cc3ccccc3)o2)C1 (centres unmarked) | 5.91%
7 | O=C(Nc1ccc(F)cc1)N(CCCN1CCOCC1)Cc1cc2cc3c(cc2[nH]c1=O)OCO3 | -16%
8 | CN(C)S(=O)(=O)c1cccc(C(=O)NCCc2ccccc2)c1 | -0.187%
9 | CS(=O)(=O)N(CC(=O)NC1CCCCC1)c1cccc(Cl)c1 | 11.7%
10 | Cc1ccc(N(C(=O)Cc2cccs2)C(C(=O)NCC2CCCO2)c2ccncc2)cc1 (centres unmarked) | 6.88%
11 | O=S(=O)(c1ccc(NC(=S)N2CCN(c3ccccc3F)CC2)cc1)N1CCOCC1 | 12.4%
12 | Cc1cc(N)n(-c2ccc(S(=O)(=O)N3CCCC3)cc2[N+](=O)[O-])n1 | 8.72%
13 | CC(Oc1ccccc1)C(=O)Nc1ccc(C(N)=O)cc1 (centres unmarked) | -15.4%
14 | Nc1ccc2c(c1)CC(=O)c1ccccc1S2 | 13.8%
15 | Cc1cnc(NC(=O)c2ccc(F)c(S(=O)(=O)N3CCOCC3)c2)s1 | 5.65%
16 | Cc1cc(C(F)(F)F)nn1CC(=O)N(C)C1CCCCC1 | 15.5%
17 | Cc1ccc(S(=O)(=O)Nc2ccccc2F)cc1C(=O)NCc1ccco1 | 9.28%
18 | CN(C)c1nc(Cl)nc(N(C#N)CCOc2ccccc2)n1 | 11.1%
19 | Cc1ccc(S(=O)(=O)C2(C(=O)NC3CCCC3)CC2)cc1 | -4.82%

Row | Structure (SMILES) | hERG current change (%, negative = inhibition) at 1uM
20 | COc1cc2cc(CCCOC(=O)c3ccc(C#N)cc3)oc(=O)c2cc1OC | 0.229%
21 | COc1ccc(-c2nc(C)ncc2N=Nc2ccccc2)cc1 | 7.74%
22 | Cc1cccn2c(=O)c(C=O)c(Nc3ccccc3)nc12 | -1.11%
23 | CCOC(=O)c1ccc(S(=O)(=O)Nc2ccc(N3CCOCC3)cc2)cc1 | 14.7%
24 | COc1ccc(C(=O)COc2ccc3c(C)cc(=O)oc3c2)cc1 | 15.3%
25 | CCCn1c(SCc2cc(=O)oc3ccc4ccccc4c23)n[nH]c1=O | 6.93%
26 | COc1ccc(C(=O)OCCOc2cccc(Cl)c2)cc1S(=O)(=O)N1CCOCC1 | 8.11%
27 | O=C(CN1CCCCCC1)Nc1ccccc1Cl | 11%
28 | COCCn1cc(C(=O)NCc2ccco2)c2c3ccccc3n(C)c2c1=O | 5.73%
29 | Br.NS(=O)(=O)c1ccc(Nc2nc(-c3ccccc3)cs2)cc1 | -5.85%
30 | Cc1c(NC(=O)c2ccc(Cl)c(S(=O)(=O)N3CCCCC3)c2)c(=O)n(-c2ccccc2)n1C | 6.7%
31 | O=C(CN1C(=O)NC2(CCCC2)C1=O)OCCOc1ccc(F)cc1 | -0.824%
32 | CCOC(=O)c1oc2ccccc2c1NC(=O)CN1CCOCC1 | 6.9%
33 | Cc1oc(-c2ccccc2)cc1C(=O)NC(Cc1c[nH]c2ccccc12)C(=O)O (centres unmarked) | 6.75%
34 | Cc1ccc(NS(=O)(=O)c2ccc3c(c2)C(=O)c2ccccc2C3=O)c(C)c1 | 12.8%
35 | Cc1cc(=O)n(CC(=O)Nc2cc(Cl)ccc2C)c(C(C)C)n1 | 14.6%
36 | O=C(c1ccco1)N1CCN(Cc2nc3ccccc3c(=O)n2-c2ccc(F)cc2)CC1 | 2.78%
37 | COc1ccc(Nc2nc(NN)nc(C)c2[N+](=O)[O-])cc1 | 13.2%
38 | COc1ccc(S(=O)(=O)N2CCC(N3CCN(c4ccccc4OC)CC3)CC2)cc1 | -11.6%

Row | Structure (SMILES) | hERG current change (%, negative = inhibition) at 1uM
39 | CCCSc1nc(SCC(=O)NCc2ccccc2)c2c3c(sc2n1)COC(C)(CC)C3 (centres unmarked) | 7.78%
40 | COc1ccc(COCC(O)CN(Cc2ccccc2)C(C)C)cc1OC (centres unmarked) | 13.8%
41 | CN(C)c1ccc(C=C2C(=O)OC(C)(C)OC2=O)cc1 | 5.16%
42 | Cn1c(=O)[nH]c(=O)c2c1nc(N1CCNCC1)n2CCOc1ccccc1 | 3.48%
43 | CCOc1ccccc1/C=C/C(=O)NCC(=O)N1CCC(N(C)C2CCCCC2C)CC1 (centres unmarked) | -28.3%
44 | CS(=O)(=O)N1CCc2cc(C(=O)N3CCN(c4cccc(Cl)c4)CC3)ccc21 | 15.3%
45 | Cc1nn(-c2ccccc2)c(C)c1/C=N/n1c(-c2ccc(Cl)cc2)n[nH]c1=S | 0.377%
46 | CCn1c(SCC(=O)Nc2nonc2C)nnc1-c1ccoc1C | 7.63%
47 | COC(=O)Cc1c(O)ccn(Cc2ccccc2OC)c1=O | 10.5%
48 | CCOc1ccc(C2CC(c3ccc(OC)c(OC)c3)n3nc(N)nc3N2)cc1 (centres unmarked) | -0.285%
49 | CCOC(=O)Cc1nnn(CC(=O)OCC)n1 | 5.32%
50 | CC(C)(C)C(=O)N1N=C(c2cccc(NS(C)(=O)=O)c2)CC1c1cccs1 (centres unmarked) | 7.27%
51 | O=S(=O)(Nc1ccc(S(=O)(=O)Nc2ncccn2)cc1)c1ccc(Cl)cc1 | 9.27%
52 | CCOC(=O)CC(NS(=O)(=O)c1ccc2[nH]c(=O)sc2c1)c1ccc(C)cc1.Cl (centres unmarked) | 8.03%
53 | Cc1cccn2c(=O)c3cc(C(=O)NCc4ccc(F)cc4)c(=N)n(CC4CCCO4)c3nc12 (centres unmarked) | -81.8%
54 | COc1cc2c(cc1OC)C(c1ccccc1C(F)(F)F)CC(=O)N2 (centres unmarked) | 3.75%
55 | CCOc1ccccc1N1CC(C(=O)Nc2c(C)n(C)n(-c3ccccc3)c2=O)CC1=O (centres unmarked) | 16.1%
56 | CCOC(=O)C1=C(COC(=O)CCc2ccccc2)NC(=O)NC1C (centres unmarked) | -4.01%
